The values that follow come from paper PMC9120069.

Sequences of proteins named here, by UniProt entry; tags and fusion partners are left off. Residues count along the entry.
UniProt Q8NE86, residues 51-351: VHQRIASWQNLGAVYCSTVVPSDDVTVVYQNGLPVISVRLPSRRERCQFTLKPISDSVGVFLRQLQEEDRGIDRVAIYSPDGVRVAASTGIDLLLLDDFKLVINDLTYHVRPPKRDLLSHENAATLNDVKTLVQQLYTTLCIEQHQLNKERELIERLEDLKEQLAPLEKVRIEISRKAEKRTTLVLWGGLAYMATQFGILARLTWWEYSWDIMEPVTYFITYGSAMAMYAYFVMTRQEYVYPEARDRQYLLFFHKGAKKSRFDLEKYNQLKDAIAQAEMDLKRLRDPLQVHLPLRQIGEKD
UniProt O95182: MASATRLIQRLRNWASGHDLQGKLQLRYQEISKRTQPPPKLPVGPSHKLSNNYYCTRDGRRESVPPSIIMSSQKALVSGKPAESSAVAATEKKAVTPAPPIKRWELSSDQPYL
UniProt O95299, residues 36-355: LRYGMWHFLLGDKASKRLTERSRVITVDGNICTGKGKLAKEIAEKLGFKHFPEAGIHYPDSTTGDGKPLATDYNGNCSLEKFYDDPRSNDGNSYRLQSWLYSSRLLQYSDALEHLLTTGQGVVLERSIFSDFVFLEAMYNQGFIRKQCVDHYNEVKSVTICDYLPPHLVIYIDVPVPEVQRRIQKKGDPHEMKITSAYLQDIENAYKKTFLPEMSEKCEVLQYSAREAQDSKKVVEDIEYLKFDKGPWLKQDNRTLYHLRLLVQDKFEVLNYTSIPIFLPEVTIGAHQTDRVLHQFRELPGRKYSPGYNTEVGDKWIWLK
UniProt Q9P0J0: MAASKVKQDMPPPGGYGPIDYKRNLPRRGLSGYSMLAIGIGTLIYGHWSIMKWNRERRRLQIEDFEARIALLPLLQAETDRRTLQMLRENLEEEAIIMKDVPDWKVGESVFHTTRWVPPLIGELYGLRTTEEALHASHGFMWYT
UniProt O95139: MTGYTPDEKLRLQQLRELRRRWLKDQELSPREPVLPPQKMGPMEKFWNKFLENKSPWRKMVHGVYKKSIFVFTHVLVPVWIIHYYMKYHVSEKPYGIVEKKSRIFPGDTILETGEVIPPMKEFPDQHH
UniProt O75380, residues 29-124: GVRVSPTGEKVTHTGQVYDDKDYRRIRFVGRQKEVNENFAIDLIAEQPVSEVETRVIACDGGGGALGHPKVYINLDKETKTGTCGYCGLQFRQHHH
UniProt P19404, residues 33-249: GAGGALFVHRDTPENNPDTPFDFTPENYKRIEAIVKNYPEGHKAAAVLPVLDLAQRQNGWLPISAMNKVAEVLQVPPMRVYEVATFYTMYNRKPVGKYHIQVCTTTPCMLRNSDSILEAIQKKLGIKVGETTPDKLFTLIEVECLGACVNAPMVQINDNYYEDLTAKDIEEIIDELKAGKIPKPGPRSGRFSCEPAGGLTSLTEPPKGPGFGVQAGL

No constants are given. Whether binding was seen depends on the method and setting. Binding seen in cells or lysates may run through a third protein. Some results given as binding are weak or reduced against the parent protein; the word gives no strength. For part of these data: Where a sequence is shown, tags or fusion partners need not be part of it.

The target in assay [1] is MCU-mCerulean (UniProt Q8NE86). Description: FRET or BRET; FRET by flow cytometry in live HEK293T cells co-transfected with MCU-mCerulean and an mVenus-tagged construct; 100 µM cycloheximide ~2 h before analysis; donor FRET efficiency against mVenus fluorescence.
Assay [2] addresses MCU-mCerulean (UniProt Q8NE86). Description: FRET or BRET; acceptor photobleaching FRET by confocal imaging of transfected cells fixed in 4% paraformaldehyde.
Assay [3] addresses Flag-tagged MCU (pore-forming subunit of the mitochondrial calcium uniporter) (UniProt Q8NE86). Description: co-IP; as the FLAG co-IP in 1% digitonin, HEK293T cells treated with rotenone beforehand.
Assay [4] shares this target. The assay is described as follows: co-IP; FLAG antibody beads on cleared lysates of HEK293T cells stably expressing MCU-Flag or SDHB-Flag; 1% digitonin, 50 mM Tris, 150 mM NaCl; overnight at 4 °C; Western blot. For orientation: A western blot detects proteins with antibodies after separation by electrophoresis.
Assay [5] has as its target T1, Flag-tagged succinate dehydrogenase complex subunit B (UniProt P21912).
T1 sequence: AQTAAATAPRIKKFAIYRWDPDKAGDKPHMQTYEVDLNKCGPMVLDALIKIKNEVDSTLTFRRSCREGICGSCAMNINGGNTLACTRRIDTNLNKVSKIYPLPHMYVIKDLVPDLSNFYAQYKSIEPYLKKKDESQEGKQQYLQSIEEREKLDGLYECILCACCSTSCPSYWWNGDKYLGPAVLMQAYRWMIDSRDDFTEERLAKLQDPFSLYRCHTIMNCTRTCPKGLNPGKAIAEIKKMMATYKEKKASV
Described as above.

For the substance “NDUFA7 tagged with mVenus (from UniProt O95182 1-113)”, in the assay with MCU-mCerulean [1], the binding entry is on record as “no binding”.
In the case of “NDUFA10 tagged with mVenus (from UniProt O95299 36-355)”, the binding result with MCU-mCerulean [2] and in the assay with MCU-mCerulean [1] was “binds” throughout.
Turning to NDUFA13 (from UniProt Q9P0J0 1-144), the binding result is given as “no binding (condition: cells treated with rotenone)” in assay [3], “binds” in assay [4] and “no binding” in assay [5].
Take “NDUFB6 tagged with mVenus (from UniProt O95139 1-128)”: the binding result with MCU-mCerulean [1] is “no binding”.
Consider “NDUFS6 tagged with mVenus (from UniProt O75380 29-124)”, for which the binding result with MCU-mCerulean [1] was “no binding”.
For the substance “NDUFV2 tagged with mVenus (from UniProt P19404 33-249)”, the binding result in the assay with MCU-mCerulean [1] is listed as “no binding”.
